According to PMC4751364, “Mitotic Activation of a Novel Histone Deacetylase 3-Linker Histone H1.3 Protein Complex by Protein Kinase CK2*” (The Journal of Biological Chemistry, 2015):
These are yes or no findings as the source states them, for the method shown. In cells and extracts the contact can be indirect. Some binding calls cover weakened binding; strength is not graded here. Each block holds one molecule with its values, some of them ahead of it.

Protein sequences, listed by entry. Tags and fused reporters are not part of them.
UniProt O15379: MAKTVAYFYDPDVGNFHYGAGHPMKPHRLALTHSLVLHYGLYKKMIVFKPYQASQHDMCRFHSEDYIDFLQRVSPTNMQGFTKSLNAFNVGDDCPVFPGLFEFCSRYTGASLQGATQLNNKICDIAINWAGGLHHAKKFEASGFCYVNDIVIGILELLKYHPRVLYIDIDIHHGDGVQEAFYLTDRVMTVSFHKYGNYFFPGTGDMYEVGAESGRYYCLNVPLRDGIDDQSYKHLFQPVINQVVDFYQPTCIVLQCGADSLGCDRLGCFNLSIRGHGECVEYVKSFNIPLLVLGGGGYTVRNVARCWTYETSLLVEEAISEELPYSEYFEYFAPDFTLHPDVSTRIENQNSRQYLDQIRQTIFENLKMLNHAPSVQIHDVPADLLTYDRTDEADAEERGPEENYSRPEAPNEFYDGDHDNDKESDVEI
UniProt Q02539: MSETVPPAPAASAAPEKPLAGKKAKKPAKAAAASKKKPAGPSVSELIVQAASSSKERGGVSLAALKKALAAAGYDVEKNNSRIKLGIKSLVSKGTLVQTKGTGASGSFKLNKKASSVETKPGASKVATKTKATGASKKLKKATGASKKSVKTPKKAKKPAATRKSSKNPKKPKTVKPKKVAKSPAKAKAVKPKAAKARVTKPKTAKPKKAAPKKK
UniProt P16403: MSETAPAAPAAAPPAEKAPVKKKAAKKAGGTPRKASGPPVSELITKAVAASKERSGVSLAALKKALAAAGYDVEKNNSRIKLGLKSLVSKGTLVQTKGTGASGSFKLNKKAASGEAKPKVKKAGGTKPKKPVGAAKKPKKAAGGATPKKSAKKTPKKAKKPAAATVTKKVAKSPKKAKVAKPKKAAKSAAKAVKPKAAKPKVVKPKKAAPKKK
UniProt P16402: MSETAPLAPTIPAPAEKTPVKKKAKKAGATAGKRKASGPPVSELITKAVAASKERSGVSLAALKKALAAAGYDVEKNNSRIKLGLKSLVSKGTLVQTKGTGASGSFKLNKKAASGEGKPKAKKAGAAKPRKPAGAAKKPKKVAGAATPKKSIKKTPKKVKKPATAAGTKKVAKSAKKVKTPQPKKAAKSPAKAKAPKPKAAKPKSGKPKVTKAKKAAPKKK
UniProt P16401: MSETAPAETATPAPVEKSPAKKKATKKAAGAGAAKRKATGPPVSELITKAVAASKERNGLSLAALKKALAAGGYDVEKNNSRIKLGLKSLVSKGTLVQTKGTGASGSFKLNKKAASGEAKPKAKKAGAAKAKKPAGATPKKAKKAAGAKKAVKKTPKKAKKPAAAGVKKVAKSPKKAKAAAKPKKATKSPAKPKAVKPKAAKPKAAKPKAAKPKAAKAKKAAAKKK

Legend:
[1] = biological target: T1, HDAC8 (human (endogenous in HeLa S3)) (UniProt Q9BY41); test: co-IP; endogenous proteins of HeLa S3 whole cell extracts (0.5% Nonidet P-40 in PBS), unsynchronised or synchronised to S, early G2, late G2 phase or mitosis (double thymidine block, nocodazole); antibody 1-2 ug/ml overnight at 4 C, protein A/G- or L-agarose, washed three times with radioimmune precipitation assay buffer; Western blot; non-immune IgG/IgM as control
T1 sequence: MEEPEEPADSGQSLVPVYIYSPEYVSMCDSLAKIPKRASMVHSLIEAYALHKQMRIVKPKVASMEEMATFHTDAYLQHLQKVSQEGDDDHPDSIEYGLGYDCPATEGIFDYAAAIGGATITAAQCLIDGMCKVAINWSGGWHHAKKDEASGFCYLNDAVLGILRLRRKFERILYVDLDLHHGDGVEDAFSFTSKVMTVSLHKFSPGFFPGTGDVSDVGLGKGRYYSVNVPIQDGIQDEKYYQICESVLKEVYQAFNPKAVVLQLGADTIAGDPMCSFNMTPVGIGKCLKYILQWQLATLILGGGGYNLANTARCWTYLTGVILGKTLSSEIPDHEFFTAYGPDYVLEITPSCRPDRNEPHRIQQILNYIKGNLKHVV

[2] = biological target: Histone deacetylase 3 (human (endogenous in HeLa S3 and MCF-7)) (UniProt O15379); test: as above

binding [1]: no binding
Molecule: Histone deacetylase 3 (from UniProt O15379 1-428) (enzyme)

binding [2]: no binding
Molecule: linker histone subtype H1.1 (from UniProt Q02539 1-215)

binding [2]: no binding
Molecule: linker histone subtype H1.2 (from UniProt P16403 1-213)

binding [2]: binds
Molecule: linker histone subtype H1.3 (from UniProt P16402 1-221)

binding [2]: no binding
Molecule: linker histone subtype H1.5 (from UniProt P16401 1-226)

binding [2]: no binding
B1: HDAC8 (enzyme, UniProt Q9BY41 1-377)
chain: T1 sequence
